Assay results as given in the supplement of paper PMC12645437, “Orthogonal IMiD-Degron Pairs Induce Selective Protein Degradation in Cells” (ACS Chemical Biology, 2025).
The list shows a part of the results.

B1: Q9UKT9 (peptide)
chain: FECEVCGAYFTQKGNLLRHIKL
B2: Q9UKT9 (peptide)
chain: FHCPQCGAHFTQKGNLLRHIKL
B3: Q9UKT9 (peptide)
chain: FGCEICGHVFTQKGNLLRHIKL
B4: Q9UKT9 (peptide)
chain: FLCEICGASFTQKGNLLRHIKL
B5: Q9UKT9 (peptide)
chain: FYCNQCGAHFTQKGNLLRHIKL
B6: Q9UKT9 (peptide)
chain: FYCNQCGAQFTQKGNLLRHIKL
B7: Q9UKT9 (peptide)
chain: FYCDVCGAEFTQKGNLLRHIKL
B8: Q9UKT9 (peptide)
chain: FNCPVCGAQFTQKGNLLRHIKL
B9: Q9UKT9 (peptide)
chain: FMCPVCGADFTQKGNLLRHIKL
B10: Q9UKT9 (peptide)
chain: FMCNVCGARFTQKGNLLRHIKL
B11: Q9UKT9 (peptide)
chain: FRCDQCGAFFTQKGNLLRHIKL
B12: Q9UKT9 (peptide)
chain: FGCPICGAQFTQKGNLLRHIKL
B13: Q9UKT9 (peptide)
chain: FNCDVCGAFFTQKGNLLRHIKL
B14: Q9UKT9 (peptide)
chain: FQCEICGHIFTQKGNLLRHIKL
B15: Q9UKT9 (peptide)
chain: FHCEQCGAWFTQKGNLLRHIKL
B16: Q9UKT9 (peptide)
chain: FRCEICGHQFTQKGNLLRHIKL
B17: Q9UKT9 (peptide)
chain: FCCNQCGRVFTQKGNLLRHIKL
B18: Q9UKT9 (peptide)
chain: FCCDQCGAMFTQKGNLLRHIKL
B19: Q9UKT9 (peptide)
chain: FFCEQCGATFTQKGNLLRHIKL
B20: Q9UKT9 (peptide)
chain: FGCEQCGASFTQKGNLLRHIKL
B21: Q9UKT9 (peptide)
chain: FHCEICGHEFTQKGNLLRHIKL
B22: Q9UKT9 (peptide)
chain: FYCEQCGAEFTQKGNLLRHIKL
B23: Q9UKT9 (peptide)
chain: FVCNQCGARFTQKGNLLRHIKL
B24: Q9UKT9 (peptide)
chain: FECDICGAMFTQKGNLLRHIKL
B25: Q9UKT9 (peptide)
chain: FVCNICGAQFTQKGNLLRHIKL
B26: Q9UKT9 (peptide)
chain: LMCEICGFTCTQKGNLLRHIKL
B27: Q9UKT9 (peptide)
chain: FDCNICGAFFTQKGNLLRHIKL
B28: Q9UKT9 (peptide)
chain: FVCPICGRKFTQKGNLLRHIKL
B29: Q9UKT9 (peptide)
chain: FLCEICGHAFTQKGNLLRHIKL
B30: Q9UKT9 (peptide)
chain: FRCNICGAWFTQKGNLLRHIKL
B31: Q9UKT9 (peptide)
chain: FYCNVCGAIFTQKGNLLRHIKL
B32: Q9UKT9 (peptide)
chain: FCCEVCGAYFTQKGNLLRHIKL

What follows are sequences tested against no compound (DMSO) (assay: log2 fold change of degron read counts, EGFP-low vs EGFP+ sorted cells; higher = lower degron-EGFP level without compound (poor expression or instability)). Conditions: compound: DMSO control; 18 h.
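Note: jurkat cells carrying a lentiviral library of mutant zinc finger degrons fused to EGFP plus mCherry, mCherry+ cells FACS sorted, degron abundance counted by next-generation sequencing.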

Sequence | log2 fold change of degron read counts
B1 | -1.01
B2 | -0.713
B3 | -0.453
B4 | -1.6
B5 | -0.447
B6 | -0.323
B7 | -1.91
B8 | -0.322
B9 | -1.32
B10 | -0.49
B11 | -0.469
B12 | -0.201
B13 | -0.293
B14 | -1.27
B15 | -1.33
B16 | -1.66

Sequence | log2 fold change of degron read counts
B17 | 0.0554
B18 | -1.13
B19 | -1.01
B20 | -1.03
B21 | -1.54
B22 | -2.85
B23 | -0.184
B24 | -1.68
B25 | -1.16
B26 | -0.569
B27 | 0.794
B28 | -0.559
B29 | -1.94
B30 | 0.201
B31 | 0.66
B32 | -0.528
